From PubChem BioAssay (NCATS)
The inconclusive results got no clear call from the source; some entries with a clear call stand among them for comparison. For some assays here: No potency is given beside an inconclusive call; the fits are too rough. For some assays here: “Side channel” marks fits to a control or component signal instead of the main read-out. Active and inactive are the calls of the source. Unless noted, calls follow the shape of the dose curve; as a rule, active = well fitted curve in either direction with a large enough effect (not every such curve was filed as active); inconclusive = small, poorly fitted or top-dose-only effect, or another doubt; inactive = flat fitted curve, though single readings scatter.

What was measured:
[1] = AP1 Signaling Pathway (AID 357); settings: ME-180 AP-1-bla reporter, EGF-induced, beta-lactamase ratio, 5 h; at 7.69 µM (top of the series) unless noted;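 also: ME-180 reporter cells stimulated with EGF at its EC50 level; top concentration of the series differs between compounds; % is scaled to controls: 0 for no effect and ±100 for the full control effect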
How it was run: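 Beta-lactamase reporter under AP-1 response element, ME-180 background. Stimulus: EC50 EGF. Compound exposure 5 h, 37 °C. Detection: CCF4, 2.5 h RT, 460/530 nm. Values: AC50 from titration.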

[2] = NFAT Signaling Pathway (AID 444); settings: Jurkat NFAT-bla M1, carbachol, beta-lactamase ratio, 5 h; at 7.69 µM (top of the series) unless noted;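 also: carbachol stimulus at about its EC50 of 1 µM final; % is scaled to controls: 0 for no effect and ±100 for the full control effect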
How it was run: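 Jurkat cells with NFAT-driven β-lactamase reporter and co-expressed M1 receptor, stimulated with carbachol (final 1 uM, ~EC50), compound titration, 5 h at 37 °C. CCF4 loaded 1 h at RT; 460/530 nm ratio gave %activity and AC50.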

[3] = Stat Signaling Pathway (AID 446); settings: ME-180 SIE beta-lactamase reporter, IL-6 stimulated, 5 h; at 7.69 µM (top of the series) unless noted;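 also: ME-180 cervical cancer cells given 40 pM IL-6 alongside compound; SIE-controlled beta-lactamase reporter measured as 460/530 nm FRET emission ratio; top concentration of the series differs between compounds; % is scaled to controls: 0 for no effect and ±100 for the full control effect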
How it was run: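 ME-180 SIE-bla cells; overnight plating; cpd + IL-6 40 pM, 5 h, 37 C; LiveBLAzer 2.5 h RT; 460/530 nm emission ratio. Normalized to 300 pM IL-6 and 125 nM JAK inhibitor controls.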

[4] = target: Mitogen-activated protein kinase 10 (Mus musculus) (UniProt Q61831); assay: JNK3 AlphaScreen Assay (AID 530); settings: JNK3 lysate, c-Jun phosphorylation; activity change, negative = inhibition: at 57.1 µM (top of the series);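 also: kinase came from lysate of stimulated human HepG2 cells; signal reports phosphorylation of biotinylated GST-cJun 1-79 at Ser73 with 10 µM ATP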; also: potency is read from the fitted curve at half-maximal effect
How it was run: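 Pre-activated (IL-1β/TNFα) JNK3 in HepG2 lysates phosphorylates biotin-GST-cJun(1-79), 10 uM ATP; anti-phospho-cJun(Ser73) AlphaScreen read at room temperature, pH 7.6 Tris buffer. Compounds pre-incubated 15 min as titrations.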

[5] = qHTS Assay for Identification of Small Molecule Agonists for Hypoxia Response Element Signaling Pathway (AID 914; active = well fitted activation curve with a large enough effect in the signal ratio, with a control signal flat, not every such curve was filed as active; inconclusive = small, poorly fitted or top-dose-only effect, or effect the other way, or a change in a side signal; the % refers to the signal ratio; also: potency is read from the fitted curve at half-maximal effect; as to activation: top concentration of the series differs between compounds; % of control where 0% means no effect); settings: ME-180 (cervical carcinoma) HRE-bla reporter, beta-lactamase ratio, CoCl2, 17 h; activation: hits give high values
How it was run: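 Read-out: CCF4 FRET ratio of 460nm to 530nm emission (excitation 405nm) after 2.5 hours at room temperature, taken from HRE-bla ME-180 cells that had been exposed to compound and EC50 CoCl2 for 17 hours.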

[6] = Primary qHTS for small molecule stabilizers of the endoplasmic reticulum resident proteome: Secreted ER Calcium Modulated Protein (SERCaMP) assay (AID 1508630; active = well fitted curve in the direction sought with a large enough effect; inconclusive = small, poorly fitted or top-dose-only effect, or another doubt; inactive = no such curve, though single readings can be large; an effect the other way counts as inactive or inconclusive; also: potency is read from the fitted curve at half-maximal effect; as to activity change, negative = inhibition: % is scaled to controls: 0 for no effect and ±100 for the full control effect); settings: SH-SY5Y GLuc-SERCaMP (Gaussia luciferase released on ER calcium loss) secretion, thapsigargin, luminescence; activity change, negative = inhibition: at 38.4 µM (top of the series) unless noted
How it was run: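 GLuc-SERCaMP-expressing SH-SY5Y cells, pretreated 16 h with compound, are challenged with thapsigargin to empty ER calcium stores; after 4 h, coelenterazine is added directly to the medium and luminescence is imaged.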

[7] = target: 3',5'-cyclic-AMP phosphodiesterase 4B (Homo sapiens) (UniProt Q07343); assay: qHTS Assay for Inhibitors of PDE-IV (AID 607; active = well fitted activation curve with a large enough effect in the main read-out, with a control signal flat, not every such curve was filed as active; inconclusive = small, poorly fitted or top-dose-only effect, or effect the other way, or a change in a side signal; also: potency is read from the fitted curve at half-maximal effect; as to activation (PDE inhibition): % of control where 0% means no effect); settings: HEK293 ACTOne CNG channel cells, membrane potential fluorescence; activation (PDE inhibition): at 22.9 µM (top of the series)
How it was run: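 ACTOne HEK293 cells carry a modified cAMP-gated CNG channel and express endogenous PDE4; plated 1000 cells/well, compounds up to 22.9 uM final. Membrane-potential dye fluorescence (ex 535/em 590) was read; parental cells received 10 uM forskolin + 100 uM RO 20-1724.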

[8] = target: Ubiquitin carboxyl-terminal hydrolase 1 (Homo sapiens) (UniProt O94782); assay: Inhibitors of USP1/UAF1: Pilot qHTS (AID 504865; active = well fitted curve in the direction sought with a large enough effect; inconclusive = small, poorly fitted or top-dose-only effect, or another doubt; inactive = no such curve, though single readings can be large; an effect the other way counts as inactive or inconclusive; also: potency is read from the fitted curve at half-maximal effect;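 also: rhodamine fluorescence freed from ubiquitin-rhodamine substrate followed over time; nearly all actives have a fitted effect of over 35% in size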); settings: purified USP1/UAF1, Ub-rhodamine cleavage fluorescence; series mostly up to 54.9 µM
How it was run: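 Enzyme-free wells gave the negative control, while test wells held 1nM USP1/UAF1 preincubated with compound for 15 min at room temperature. Ub-Rho at 150nM final started the reaction, and fluorescence at 480/540 nm was recorded kinetically.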

[9] = target: Cytochrome P450 2C9 (Homo sapiens) (UniProt P11712); assay: qHTS Assay for Inhibitors and Substrates of Cytochrome P450 2C9 (AID 883; active = well fitted curve in the direction sought with a large enough effect; inconclusive = small, poorly fitted or top-dose-only effect, or another doubt; inactive = no such curve, though single readings can be large; an effect the other way counts as inactive or inconclusive; also: potency is read from the fitted curve at half-maximal effect; nearly all actives have a fitted effect of over 60% in size); settings: recombinant CYP2C9, luciferin-H luminescence, 60 min; series mostly up to 57.1 µM
How it was run: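 Human CYP2C9 (10nM) with Luciferin-H at 100uM (its KM) in 25mM KPO4; compound preincubated 10 min at 37C, then NADPH regeneration for 60 min at 37C. Luciferin read by luminescence after detection reagent; normalized to 57uM sulphaphenazole as full inhibition.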

[10] = target: Cytochrome P450 3A4 (Homo sapiens) (UniProt P08684); assay: qHTS Assay for Inhibitors and Substrates of Cytochrome P450 3A4 (AID 884; active = well fitted curve in the direction sought with a large enough effect; inconclusive = small, poorly fitted or top-dose-only effect, or another doubt; inactive = no such curve, though single readings can be large; an effect the other way counts as inactive or inconclusive; also: potency is read from the fitted curve at half-maximal effect; nearly all actives have a fitted effect of over 50% in size); settings: recombinant CYP3A4, Luciferin-PPXE luminescence; activity change, negative = inhibition: at 57.1 µM (top of the series)
How it was run: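 20 nM human CYP3A4 with 25 uM Luciferin-PPXE (at KM) in 200 mM KPO4, preincubated 10 min with compound; NADPH regeneration started a 60 min RT reaction. Luciferin detected by luminescence, normalized to 57 uM ketoconazole as full inhibition.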

[11] = target: Cytochrome P450 3A4 (Homo sapiens) (UniProt P08684); assay: qHTS Assay for Activators of Cytochrome P450 3A4 (AID 885; active = well fitted curve in the direction sought with a large enough effect; inconclusive = small, poorly fitted or top-dose-only effect, or another doubt; inactive = no such curve, though single readings can be large; an effect the other way counts as inactive or inconclusive; also: potency is read from the fitted curve at half-maximal effect; nearly all actives have a fitted effect of over 65% in size); settings: recombinant CYP3A4, Luciferin-PPXE luminescence, 60 min; series mostly up to 57.1 µM
How it was run: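 20nM CYP3A4 + 25uM Luciferin-PPXE (=KM), 200mM KPO4; cpd 10 min RT; NADPH regen, 60 min RT; stop w/ detection buffer, 20 min; luminescence. Normalized to 57 uM ketoconazole.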
Tags tell the direction and shape of the fitted curve or compound fluorescence and quenching.

UniProt O94782, sequence (O94782 whole entry, looked up): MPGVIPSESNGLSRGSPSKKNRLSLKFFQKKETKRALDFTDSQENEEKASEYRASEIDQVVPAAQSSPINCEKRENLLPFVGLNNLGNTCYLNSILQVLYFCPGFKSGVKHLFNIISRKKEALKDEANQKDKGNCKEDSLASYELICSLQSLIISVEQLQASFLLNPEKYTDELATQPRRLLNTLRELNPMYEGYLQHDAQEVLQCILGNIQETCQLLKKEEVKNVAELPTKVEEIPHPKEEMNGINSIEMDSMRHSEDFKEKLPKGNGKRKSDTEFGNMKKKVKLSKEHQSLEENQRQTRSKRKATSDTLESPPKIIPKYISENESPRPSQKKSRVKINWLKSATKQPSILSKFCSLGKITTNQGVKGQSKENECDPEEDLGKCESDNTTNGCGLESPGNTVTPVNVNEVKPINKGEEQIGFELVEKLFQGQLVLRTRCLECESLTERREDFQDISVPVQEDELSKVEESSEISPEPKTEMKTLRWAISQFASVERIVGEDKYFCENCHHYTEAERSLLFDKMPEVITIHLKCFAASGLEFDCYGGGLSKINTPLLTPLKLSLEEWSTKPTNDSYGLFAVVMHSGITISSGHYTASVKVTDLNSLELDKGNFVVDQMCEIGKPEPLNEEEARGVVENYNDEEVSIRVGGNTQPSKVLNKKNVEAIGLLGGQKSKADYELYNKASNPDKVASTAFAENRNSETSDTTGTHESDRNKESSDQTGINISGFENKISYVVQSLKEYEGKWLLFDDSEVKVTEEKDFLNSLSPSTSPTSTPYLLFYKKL
UniProt Q07343, sequence (Q07343 whole entry, looked up): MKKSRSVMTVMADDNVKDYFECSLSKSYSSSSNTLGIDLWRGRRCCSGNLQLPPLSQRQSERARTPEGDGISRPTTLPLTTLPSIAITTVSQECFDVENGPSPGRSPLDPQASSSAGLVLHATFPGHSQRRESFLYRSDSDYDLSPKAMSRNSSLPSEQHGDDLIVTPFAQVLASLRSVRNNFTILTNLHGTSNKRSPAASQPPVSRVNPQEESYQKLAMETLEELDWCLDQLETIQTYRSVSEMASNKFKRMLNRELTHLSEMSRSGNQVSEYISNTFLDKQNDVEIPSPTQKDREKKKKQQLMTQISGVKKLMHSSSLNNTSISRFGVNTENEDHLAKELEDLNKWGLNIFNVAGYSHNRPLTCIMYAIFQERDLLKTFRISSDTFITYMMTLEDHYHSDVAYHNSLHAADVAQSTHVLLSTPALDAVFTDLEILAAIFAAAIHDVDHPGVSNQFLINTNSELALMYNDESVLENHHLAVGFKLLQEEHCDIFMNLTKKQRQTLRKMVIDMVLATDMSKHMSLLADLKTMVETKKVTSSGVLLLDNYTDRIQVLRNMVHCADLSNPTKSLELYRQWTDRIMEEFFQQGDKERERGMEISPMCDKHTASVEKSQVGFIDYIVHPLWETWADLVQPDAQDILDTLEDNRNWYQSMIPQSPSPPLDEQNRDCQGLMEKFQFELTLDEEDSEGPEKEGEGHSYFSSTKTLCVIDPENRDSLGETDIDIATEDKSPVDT
UniProt P08684, sequence (P08684 whole entry, looked up): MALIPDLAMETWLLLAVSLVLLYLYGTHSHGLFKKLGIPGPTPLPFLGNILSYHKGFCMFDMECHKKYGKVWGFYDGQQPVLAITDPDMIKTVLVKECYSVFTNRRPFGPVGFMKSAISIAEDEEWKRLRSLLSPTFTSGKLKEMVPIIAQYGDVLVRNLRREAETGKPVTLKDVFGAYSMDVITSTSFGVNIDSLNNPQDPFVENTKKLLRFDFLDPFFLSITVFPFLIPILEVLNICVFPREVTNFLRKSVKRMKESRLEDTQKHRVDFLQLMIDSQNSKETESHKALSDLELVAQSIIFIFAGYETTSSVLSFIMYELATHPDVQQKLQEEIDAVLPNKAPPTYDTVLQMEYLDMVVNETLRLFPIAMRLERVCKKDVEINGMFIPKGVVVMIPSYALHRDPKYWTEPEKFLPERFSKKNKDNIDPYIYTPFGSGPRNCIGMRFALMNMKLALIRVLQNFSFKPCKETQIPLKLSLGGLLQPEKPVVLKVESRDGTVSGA
UniProt P11712, sequence (P11712 whole entry, looked up): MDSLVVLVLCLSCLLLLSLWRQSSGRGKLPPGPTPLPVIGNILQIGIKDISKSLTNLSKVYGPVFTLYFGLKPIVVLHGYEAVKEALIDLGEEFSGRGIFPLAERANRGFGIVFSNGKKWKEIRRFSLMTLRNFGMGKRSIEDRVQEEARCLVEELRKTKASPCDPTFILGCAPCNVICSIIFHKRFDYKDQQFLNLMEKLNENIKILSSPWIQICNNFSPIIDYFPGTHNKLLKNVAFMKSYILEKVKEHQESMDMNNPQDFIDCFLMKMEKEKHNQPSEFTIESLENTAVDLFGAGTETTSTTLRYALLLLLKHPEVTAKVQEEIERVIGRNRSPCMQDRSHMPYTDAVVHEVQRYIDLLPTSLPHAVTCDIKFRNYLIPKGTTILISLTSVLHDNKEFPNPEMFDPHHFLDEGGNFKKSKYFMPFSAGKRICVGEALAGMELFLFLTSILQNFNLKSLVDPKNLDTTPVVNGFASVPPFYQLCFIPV

COc1ccc(-c2nc3cnc(N(C)C)nc3n(CCc3ccccc3)c2=O)cc1
activity change, negative = inhibition [1]: inconclusive: 119% [activator] | activity change, negative = inhibition [2]: inconclusive: 155% [activator] | activity, negative = inhibition [3]: active: 121% [activator] | Potency [4]: inconclusive [activator, full curve] | Potency [5]: active: 0.794 µM | Potency [6]: inactive

COc1ccccc1CNc1ncnc2ccc(-c3c(C)noc3C)cc12
activity change, negative = inhibition [1]: inconclusive: 14.8% [activator] | activity change, negative = inhibition [2]: inconclusive: -104% [inhibitor] | activity, negative = inhibition [3]: inconclusive: -67.8% [inhibitor] | Potency [7]: inconclusive [activator, single point] | Potency [5]: active: 1.26 µM | Potency [8]: inconclusive [inhibitor, partial curve, poor fit] | Potency [6]: inactive

CS(=O)(=O)Nc1cccc(-c2nc(Nc3ccc(F)cc3)c3ccccc3n2)c1
activity change, negative = inhibition [1]: inactive: -20.3% | activity change, negative = inhibition [2]: inconclusive: -82% [inhibitor] | activity, negative = inhibition [3]: inconclusive: -52.6% [inhibitor] | activation [5]: inconclusive: -28.5% | Potency [8]: inconclusive [inhibitor, partial curve, poor fit] | Potency [6]: inconclusive [inhibitor, single point]

COCCn1c(=O)c(-c2cccs2)nc2cnc(Oc3cccc(Cl)c3)nc21
activity change, negative = inhibition [1]: inconclusive: 50.9% [activator] | activity change, negative = inhibition [2]: inconclusive: 83% [activator] | activity, negative = inhibition [3]: inconclusive: 135% [activator] | Potency [4]: inconclusive [activator, partial curve] | Potency [7]: inactive | Potency [5]: active: 3.16 µM | Potency [6]: inactive

Cc1nc2cnc(Oc3cccc(Cl)c3)nc2n(Cc2ccc(F)cc2)c1=O
activity change, negative = inhibition [1]: inconclusive: -37.9% [inhibitor] | Potency [6]: inconclusive [inhibitor, single point]

COc1ccccc1CNc1ncnc2ccc(-c3ccc(N(C)C)cc3)cc12
activity change, negative = inhibition [1]: inconclusive: -46.4% [inhibitor] | activity change, negative = inhibition [2]: inconclusive: -35.5% [inhibitor] | Potency [9]: inconclusive [inhibitor, partial curve] | Potency [8]: inconclusive [inhibitor, partial curve, poor fit] | Potency [6]: inconclusive [inhibitor, partial curve, poor fit]

COCCn1c(=O)c(-c2ccc(Cl)cc2)nc2cnc(N3CCNCC3)nc21
activity change, negative = inhibition [1]: inconclusive: 161% [activator] | activity change, negative = inhibition [2]: inconclusive: 229% [activator] | Potency [5]: inconclusive [fluorescent, side channel] | Potency [8]: inactive | Potency [6]: inconclusive [inhibitor, single point]

O=c1c(-c2ccc(F)cc2)nc2cnc(N3CCNCC3)nc2n1Cc1cccs1
activity change, negative = inhibition [1]: inconclusive: 165% [activator] | activity change, negative = inhibition [2]: active: 200% [activator] | activity, negative = inhibition [3]: inconclusive: 242% [activator] | Potency [4]: inconclusive [activator, partial curve] | Potency [5]: active: 2.51 µM | Potency [6]: inconclusive [inhibitor, single point]

N#CCCn1c(=O)c(-c2cccs2)nc2cnc(Oc3cccc(Cl)c3)nc21
activity change, negative = inhibition [1]: inconclusive: 86.6% [activator] | activity change, negative = inhibition [2]: inconclusive: 71.2% [activator] | activity, negative = inhibition [3]: inconclusive: 150% [activator] | Potency [7]: inconclusive [activator, full curve, poor fit] | Potency [9]: inconclusive [inhibitor, partial curve] | Potency [10]: inconclusive [inhibitor, full curve] | Potency [5]: active: 1.58 µM | Potency [6]: inconclusive [inhibitor, single point]

Cn1c(=O)c(-c2ccccc2)nc2cnc(N3CCNCC3)nc21
activity change, negative = inhibition [1]: inconclusive: 81.4% [activator] | activity change, negative = inhibition [2]: inconclusive: 163% [activator] | activity, negative = inhibition [3]: inconclusive: 83.9% [activator] | Potency [5]: active: 3.16 µM | Potency [6]: inconclusive [inhibitor, single point]

CS(=O)(=O)N1CCC2(CC1)CN(C(c1ccccc1)c1ccccc1)C2
activity change, negative = inhibition [1]: inconclusive: -31.1% [inhibitor] | activity change, negative = inhibition [2]: inactive: -0.932% | Potency [4]: inactive | Potency [11]: active: 15.8 µM | Potency [6]: inactive

COc1cccc(Cn2c(=O)c(-c3cc(F)cc(F)c3)nc3cnc(N(C)C)nc32)c1
activity change, negative = inhibition [1]: inconclusive: 32.8% [activator] | activity change, negative = inhibition [2]: inconclusive: 67.6% [activator] | activity, negative = inhibition [3]: active: 91.4% [activator] | Potency [5]: active: 0.398 µM | Potency [6]: inactive

CN1CCN(c2ncc3nc(-c4cc(F)cc(F)c4)c(=O)n(CCC#N)c3n2)CC1
activity change, negative = inhibition [1]: inconclusive: 90.4% [activator] | activity change, negative = inhibition [2]: inconclusive: 181% [activator] | activity, negative = inhibition [3]: inconclusive: 148% [activator] | Potency [6]: inconclusive [inhibitor, single point]
